From PubChem BioAssay AID686978 (National Center for Advancing Translational Sciences (NCATS), 2013)
“And” between values parts separate entries of the source, which are not always exact repeats. Equal values may be shown once. The whole screen tested about 420,000 compounds, of which about 64,000 (15%) were called active. Inconclusive means that the source gave no clear call. Such entries were picked first, then a sample of the others. Calls come from the whole dose curve; as a rule, active = well fitted inhibition curve with a large enough effect; inconclusive = small, poorly fitted or top-dose-only effect; inactive = flat fitted curve, though single readings scatter. No potency is given beside an inconclusive call; the fits are too rough.

Experiment: qHTS for Inhibitors of human tyrosyl-DNA phosphodiesterase 1 (TDP1): qHTS in cells in absence of CPT; note: nearly all actives have a fitted effect of over 55% in size
Conditions: DT40 Tdp1-/- hTDP1 cells, no CPT, ATP luminescence, 48 h; activity change, negative = growth inhibition: at 46.2 µM (top of the series) unless noted
Procedure, shortened: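 Stably hTDP1-transfected Tdp1-null chicken DT40 cells were treated with library compounds minus camptothecin and grown for at least 48 hr at 37 °C, after which cellular ATP was quantified by luminescence.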
% is set by controls: 0 for no effect and ±100 for the full control effect; potency is the fitted concentration of half-maximal effect; tags give direction and shape of the fitted curve.

Structure (SMILES) | Potency | activity change, negative = growth inhibition
COc1ccc(CCNC(=O)Cn2ccc3cc(S(=O)(=O)N4CCCCC4)ccc32)cc1OC | inconclusive [inhibitor, single point] | –
Cc1ccc(-n2cc(-c3ccccc3)c3c(N4CCOCC4)ncnc32)cc1 | inconclusive [inhibitor, single point] | –
COc1ccc(CCNC(=O)C(=O)c2c(C)[nH]c3ccccc23)cc1 | inconclusive [inhibitor, single point] | –
Cc1ccc(-c2noc(CCC(=O)Nc3cccc(C(=O)NC4CC4)c3)n2)cc1 | inconclusive [inhibitor, single point] | –
Cc1cccc2sc(N(CCCN3CCOCC3)C(=O)CS(=O)(=O)c3ccc(F)cc3)nc12 | inactive | –
Cc1ccc(N(C(=O)c2cccc(C)c2)S(=O)(=O)c2ccc(Cl)cc2)cc1 | inconclusive [inhibitor, single point] | –
Cc1cc(=O)[nH]c(-c2cccnc2)n1 | inactive | –
Cc1cc(NC(=O)COn2nnc3ccc(Cl)cc32)no1 | – | inconclusive: -32.6% [inhibitor]
COc1ccc(/C=C/c2nc(N)nc(-c3ccccc3O)n2)cc1 | inconclusive [inhibitor, single point] | –
COc1ccc2c(c1)c1c(c(=O)n(-c3ccc(OC)c(OC)c3)c(=O)n1Cc1ccc(C)cc1)n2C | inactive | –
COc1ccccc1CNC(=O)Nc1nc(C(N)Cc2ccc(Cl)cc2)cs1 (configuration not stated) | inconclusive [inhibitor, single point] | –
COc1ccc(C2CC(=O)c3cnc4c(-c5ccccc5)c(C)nn4c3C2)c(OC)c1 (configuration not stated) | inactive | –
O=S(=O)(Nc1nc2ccccc2nc1Cl)c1ccc2c(c1)OCCO2 | inconclusive [inhibitor, single point] | –
O=C(Nc1ccc2c(c1)OCCO2)C1C(c2ccccc2)=Nc2ccccc2N1C(=O)c1cccnc1 (configuration not stated) | inconclusive [inhibitor, partial curve] | –
CCN1CCN(c2ccc(S(=O)(=O)N3CCCCC3)cc2NC(=O)c2cccc(C(F)(F)F)c2)CC1 | active: 18.4 µM | –
CCN(CC)S(=O)(=O)c1ccc2oc(C(=O)NC3CCCc4ccccc43)c(C)c2c1 (configuration not stated) | active: 10.3 µM | –
C[C@@H]1CN([C@H](C)CO)C(=O)c2c(c3ccccc3n2C)-c2ccccc2CO[C@H]1CN(C)C(=O)CCC(F)(F)F | inconclusive [inhibitor, single point] | –
S=c1[nH]nc(-c2cccs2)n1/N=C/c1cn(-c2ccccc2)nc1-c1ccccc1 | inconclusive [inhibitor, single point] | –
COc1ccc(-c2noc(N3CCC(C(=O)NCCCN4CCC(C)CC4)CC3)n2)cc1 | inconclusive [inhibitor, partial curve, poor fit] | –
O=C(O)c1ccccc1SC1CC(=O)N(C2CCCCC2)C1=O (configuration not stated) | inconclusive [inhibitor, single point] | –
CCN1CCN(CCCNC(=O)c2ccc3c(c2)N(Cc2ccc(C)cc2)CCS3)CC1 | inconclusive [inhibitor, single point] | –
COc1ccccc1CNC(=O)CCCn1c(=O)c2cccn2c2ccccc21 | active: 29.1 µM | –
CCOC(=O)c1cc(-c2ccccc2)sc1NC(=O)CC(C)C | inconclusive [inhibitor, single point] | –

Structure (SMILES) | Potency | activity change, negative = growth inhibition
CCOC(=O)C1(CC2CCCCO2)CCN(Cc2nc3ccccc3[nH]2)CC1 (configuration not stated) | inactive | –
CCC(C)NC(=O)c1c(N)n(/N=C/c2ccccn2)c2nc3ccccc3nc12 (configuration not stated) | active: 20.6 µM | –
Cc1cc(C)cc(-n2nnc(C(=O)NCc3ccc(Cl)cc3)c2N)c1 | inconclusive [inhibitor, single point] | –
COc1ccc(N2CCN(C(=O)CSc3nc4ccccc4c(=O)[nH]3)CC2)cc1 | inconclusive [inhibitor, single point] | –
COc1ccc(-c2nc(SCC(=O)Nc3cccc(C(C)=O)c3)n[nH]2)cc1 | inconclusive [inhibitor, partial curve, poor fit] | –
COc1ccc(OC)c(S(=O)(=O)N2CCN(c3ccccc3OC)CC2)c1 | inconclusive [inhibitor, single point] | –
CCN1C(=O)CC2CCCC1C2 (configuration not stated) | inactive | –
Cc1ccc(C)c(S(=O)(=O)/N=C2\C=C(NS(=O)(=O)c3ccccc3)C(=O)c3ccccc32)c1 | active: 16.4 µM | –
O=C(NC1CCCN(Cc2ccc(Cl)cc2)C1)c1ccnc(Cl)c1 (configuration not stated) | inconclusive [inhibitor, single point] | –
COc1ccccc1C(=O)NNC(=O)C(=O)NC(C)(C)C | inconclusive [inhibitor, single point] | –
O=[n+]1cc(-c2ccc(Cl)cc2)n([O-])c2c1CCCCC2 | inconclusive [inhibitor, partial curve, poor fit] | –
CCCCN(C(=O)c1cccc(S(=O)(=O)N2CCOCC2)c1)c1c(N)n(CCC)c(=O)[nH]c1=O | inactive | –
Cc1ccc(SCCC(=O)OCC(=O)NCC2CCCCC2)cc1 | inconclusive [inhibitor, single point] | –
COc1ccc(Cl)cc1-c1cc(C(=O)NCc2cccs2)[nH]n1 | inconclusive [inhibitor, partial curve] | –
COC(=O)[C@@H]1Cc2c([nH]c3ccccc23)C(C)(C)N1C(=O)CCl | active: 23.1 µM | –
Cn1c(CNC(=O)c2ccc(F)cc2)cc2ccccc21 | inactive | –
Cc1nnc(NC(=O)c2ccc3c(c2)C(=O)N(CC2CCCO2)C3=O)s1 (configuration not stated) | inactive | –
CC(C)c1ccc(NC(=O)CCc2ccccc2)cc1 | inconclusive [inhibitor, single point] | –
N#Cc1ccccc1S(=O)(=O)N1CCC(Oc2ccc(-n3cnnn3)cc2)CC1 | inconclusive [inhibitor, single point] | –
COc1cccc(CN2CCN(C(=O)c3ccc(-c4ccccc4)cc3)CC2)c1 | inconclusive [inhibitor, single point] | –
COc1ccc(OCCC(=O)Nc2cc(C)on2)cc1 | inconclusive [inhibitor, single point] | –
CCOC(=O)c1c(/N=C/c2ccc(C)cc2O)sc2c1CCN(C)C2 | inconclusive [inhibitor, partial curve, poor fit] | –
Cc1ccc(NC(=O)C(C)N2C(=O)c3ccccc3C2=O)cc1C (configuration not stated) | inactive | –

Structure (SMILES) | Potency | activity change, negative = growth inhibition
Oc1nc(Nc2cccc(Cl)c2)sc1/C=C1\C=Nc2ccccc21 | inconclusive [inhibitor, single point] | –
Cc1ccc(C)c(NC(=O)Cn2nnc(C(=O)NCc3ccco3)c2N)c1 | active: 11.6 µM and active: 1.16 µM | –
CN=C(Nc1cccc(OC)c1)SC1CC(=O)N(c2ccc(C(=O)O)cc2)C1=O (configuration not stated) | inactive | –
COCc1c(C(=O)N2CCN(C3CCCC3)CC2)cnn1-c1nccc(-c2cc(C)sc2C)n1 | inactive | –
CN(C)S(=O)(=O)c1ccc(NC(=O)c2cc3ccccc3o2)cc1 | inconclusive [inhibitor, partial curve] | –
CC(C)C(C(=O)NCc1ccccc1)N(C)Cc1ccc(Cl)c(Cl)c1 (configuration not stated) | inconclusive [inhibitor, single point] | –
COc1cccc2oc(-c3ccccc3)cc(=O)c12 | inconclusive [inhibitor, partial curve, poor fit] | –
COc1ccc2cnnc(SCC(=O)Nc3ccc(C(C)=O)cc3)c2c1OC | inconclusive [inhibitor, single point] | –
C=CCOC(=O)C(=O)/C=C/c1coc2ccccc2c1=O | inconclusive [inhibitor, single point] | –
CCOC(=O)c1c(NC(=O)CS(=O)(=O)c2ccc(Cl)cc2)sc2c1CCCC2 | inconclusive [inhibitor, single point] | –
CCNCc1cc(Cl)cc(OC)c1OC(C)C | inconclusive [inhibitor, single point] | –
CN(CCOc1ccccc1)C(=O)c1ccc(F)c(S(=O)(=O)N2CCOCC2)c1 | inactive | –
CCN(C(=O)CSc1ncnc2sccc12)c1c(N)n(Cc2ccccc2)c(=O)[nH]c1=O | inconclusive [inhibitor, single point] | –
COc1ccccc1-c1nc(NCc2cccnc2)c2ccccc2n1 | inconclusive [inhibitor, single point] | –
COc1ccc2c(c1)OC/C(=C/c1ccc(OC)c(OC)c1)C2=O | inconclusive [inhibitor, full curve] | –
O=C1[C@H]2[C@H](C=CC[C@H]2C(=O)N2CCOCC2)CCN1Cc1ccc(Cl)c(Cl)c1 | inconclusive [inhibitor, single point] | –
C=CCOc1ccc(/C=C/C(=O)OCC(=O)NCc2ccco2)cc1 | inconclusive [inhibitor, single point] | –
O=C(C#Cc1ccccc1)c1ccco1 | active: 0.58 µM | –
Cc1ccc(OCc2cc(C(=O)N3CCc4[nH]cnc4C3c3ccccn3)no2)cc1C (configuration not stated) | inactive | –
CCn1c2ccccc2c2cc(/C=N/O)ccc21 | inconclusive [inhibitor, single point] | –
COc1ccc(NC(=O)CN(c2ccc(F)cc2)S(=O)(=O)c2ccccc2)c(OC)c1 | inconclusive [inhibitor, single point] | –
